# PubChem BioAssay AID743449 (Broad Institute, 2014)
# Screen size: about 9,900 compounds; about 90 (0.9%) were called active. The shares of active, inactive and inconclusive entries below differ from those in the screen.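 The calls were made as follows: active = mean normalized replicate activity at least 50 and at least half of replicates each reaching 50; inconclusive = only one of the two criteria met; inactive = neither criterion met.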
# Test: YAP1 pathway inhibitors via CTGF transcript, primary screen, DLD1 colon cancer cells, RT-qPCR, single point (AID 743449);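 also: 0% = neutral control wells and 100% = dasatinib control wells; higher means stronger suppression of CTGF expression like dasatinib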
# Conditions: DLD1 CTGF mRNA qPCR, 24 h; at 12.5 µM; stronger effect = higher value
row,SMILES,inhibition
1,COc1cccc(-c2ccc([C@H]3[C@H]4CN(C(=O)Cc5ccncc5)CCCCN4[C@H]3CO)cc2)c1,active: 76.7%
2,O=C(Cc1ccncc1)N1CCCCN2[C@H](C1)[C@H](c1ccc(C#Cc3ccccc3F)cc1)[C@@H]2CO,active: 104%
3,O=C(Cc1ccncc1)N1CCCCN2[C@H](C1)[C@@H](c1ccc(C#Cc3ccccc3F)cc1)[C@@H]2CO,inactive: 12.4%
4,O=C(Cc1ccncc1)N1CCCCN2[C@H](CO)[C@@H](c3ccc(C#Cc4ccccc4F)cc3)[C@H]2C1,active: 54.3%
5,O=C(Cc1ccncc1)N1CCCCN2[C@@H](CO)[C@@H](c3ccc(C#Cc4ccccc4F)cc3)[C@@H]2C1,inactive: 27.9%
6,C[C@H](CO)N1C[C@H](C)[C@H](CN(C)C(=O)Oc2cccc3ccccc23)OCc2cnnn2CCCC1=O,inconclusive: 35.7%
7,C[C@@H]1CN([C@@H](C)CO)C(=O)CCCn2nncc2CO[C@H]1CN(C)C(=O)Oc1cccc2ccccc12,inactive: -0.0735%
8,CC=Cc1ccc2n(c1=O)C[C@H]1[C@H](CO)[C@@H](C(=O)OC)[C@@H]2N1S(=O)(=O)c1ccccc1C (mixture of isomers),inconclusive: 33.7%
9,O=C(Cc1ccncc1)N1CCCCN2[C@H](CO)[C@H](c3ccc(C#Cc4ccccc4F)cc3)[C@@H]2C1,inconclusive: 44.1%
